According to the supplement of paper PMC8792480:
Where a name gives a salt, the structure may show the parent alone. The list shows a part of the results. Most values come without repeats; read them as rough.

What was measured:
NCI-H460 [1] = test: cell-surface PD-L1 MFI ratio relative to radiation alone (isotype-subtracted); higher = higher PD-L1 surface expression; conditions: inducer: radiation 8 Gy; 10 µM; 24 h
Procedure: (§1)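 A549 and H460 NSCLC cells were treated with each library drug at 10 uM, then with radiation (8 Gy) or cisplatin (4 uM), and incubated for 24 h. Cell-surface PD-L1 was measured by flow cytometry as an MFI ratio: (MFI drug+inducer - MFI isotype)/(MFI inducer alone - MFI isotype). Hits were defined as ratio < 0.75.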

NCI-H460 [2] = test: cell-surface PD-L1 MFI ratio relative to cisplatin alone (isotype-subtracted); higher = higher PD-L1 surface expression; conditions: inducer: cisplatin 4 uM; 10 µM; 24 h
Procedure: as §1
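Throughout, for cell-surface PD-L1 MFI ratio relative to radiation alone (isotype-subtracted): surface PD-L1 on NSCLC cells stained with a PE-labelled anti-human PD-L1 antibody before flow cytometry, screening a library of roughly two hundred mostly kinase and epigenetic inhibitors.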

Row | Structure (SMILES) | cell-surface PD-L1 MFI ratio (NCI-H460 [1]) | cell-surface PD-L1 MFI ratio (NCI-H460 [2])
1 | CCOc1cc(N2CCC(O)CC2)ccc1Nc1ncc2c(n1)N(C)c1ccccc1C(=O)N2C | inactive: 1.11 | active: 0.749
2 | CC(C)[C@H]1C(=O)N[C@@H](CCCNC(=N)N)C(=O)NCC(=O)N[C@@H](CC(=O)O)C(=O)N[C@H](Cc2ccccc2)C(=O)N1C [Cilengitide trifluoroacetate] | inactive: 0.929 | active: 0.44
3 | Nc1ncn([C@@H]2O[C@H](CO)[C@@H](O)[C@H]2O)c(=O)n1 [Azacitidine] | inactive: 1.61 | inactive: 0.856
4 | O=C(CCCCCCC(=O)Nc1ccccc1)NO [Vorinostat (SAHA, MK0683)] | active: 0.702 | inactive: 0.952
5 | O=C(O)c1ccc2c3c1cccc3c(=O)n1c3ccccc3nc21 | inactive: 1.02 | inactive: 1.04
